# Read counts are not given, so values of variants with three or more changes are uncertain.
# B1: CPEB3 Ribozyme (parent)
# chain: UAACAGGGGGCCACAGCAGAAGCGUUCACGUCGCAGCCCCUGUCAGAUUCUGGUGAAUCUGCGAAUUCUGCUGUAUAUCUC
# Variants of: B1
# Experiment: self-cleavage, relative activity (ratio to wild type); higher = more cleavage; in vitro, sequencing
# Outline: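 Relative activity was defined as the cleaved/total read fraction for a variant divided by the same fraction for the unmutated ribozyme. CPEB3 self-cleaving ribozyme libraries were made by rounds of error-prone PCR, barcoded, and transcribed in vitro with T7 RNA polymerase for 5 hours at 37°C, and cleavage ran through transcription plus a 15 min DNase I step before EDTA. Illumina sequencing of template-switched reverse transcripts gave the reads, and DNA sequencing mapped the barcodes. Averages come from three batches, using variants with at least 5 reads.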
row,Variant,self-cleavage
1,A3G A13G U48C G53A A65G U74C,0.07
2,A3G A13G U54C G70A,0.34
3,A3G A13G U72C,0.78
4,A3G A13G U78A,1.03
5,A3G A13U A15G A20G A21G,0.71
6,A3G A13U A15G C34U U58C U76G U80C,0.12
7,A3G A13U A15G U26A U31A,0.55
8,A3G A13U A15G U48C,0.64
9,A3G A13U A18C C39U C40U U60A C71U,0.02
10,A3G A13U A18G C29U U43C A56G U69C,0.27
11,A3G A13U A18G U58C U69C U78C,1.06
12,A3G A13U A20G A65U U72A A77G,0.16
13,A3G A13U A21U,0.63
14,A3G A13U A21U A57U,0.37
15,A3G A13U A28G U31A U69C,0.36
16,A3G A13U A28U U48C G61A U66G,0.25
17,A3G A13U A28U U54A A75G,1.08
18,A3G A13U A35C U41C,1.09
19,A3G A13U A35G U60C U72C U78C,1.07
20,A3G A13U A35U U49C U72C U76A U78C,0.3
21,A3G A13U A45G U51A U60G U74C,0.49
22,A3G A13U A57G U60A,0.43
23,A3G A13U A64G,0.9
24,A3G A13U A65G U69C,0.19

row,Variant,self-cleavage
1,A3G A13U C40U U41C U58C,0.3
2,A3G A13U G16C G24C G30U A47G,0.45
3,A3G A13U G19U A28C G33U A56G,0.12
4,A3G A13U G24A U43A A45G A64U,0.08
5,A3G A13U G46U U80G,0.6
6,A3G A13U U25C U80C,0.15
7,A3G A13U U26C A64G,0.56
8,A3G A13U U26C C32U G53A U80C,0.11
9,A3G A13U U26C U41A,0.09
10,A3G A13U U31A,0.53
11,A3G A13U U31A U41C U69C,0.23
12,A3G A13U U31C C32G U41C,0.18
13,A3G A13U U41C A65G,0.56
14,A3G A13U U43C U54A U80C,0.49
15,A3G A13U U43C U67C U80C,0.17
16,A3G A13U U51C,1.19
17,A3G A15C A45G A75U,0.86
18,A3G A15C A47G C50U U54C,0.24
19,A3G A15C G36A U43C A56G C62U,0.11
20,A3G A15C G36U,0.39
21,A3G A15C U25A,0.57
22,A3G A15C U26A U51C U72A,0.74
23,A3G A15C U41C A45G,1.03
24,A3G A15C U48C U67C,0.15

row,Variant,self-cleavage
1,A3G A15C U60C A64G A65U U69A,0.1
2,A3G A15G A18G A21G U72A,0.17
3,A3G A15G A18G U31A A65G U67A U69C,0.3
4,A3G A15G A18U U26A A45U G61A,0.07
5,A3G A15G A20G U26A A45U A64C,0.08
6,A3G A15G A20G U26C A77G,0.15
7,A3G A15G A20U C32U U78C,0.09
8,A3G A15G A21G A65G U67C U69A,0.25
9,A3G A15G A21G U43G A64G,0.46
10,A3G A15G A28G A47U U49C U80C,0.36
11,A3G A15G A35G,0.76
12,A3G A15G A35G U58C,0.56
13,A3G A15G A64G,0.85
14,A3G A15G A65G,0.46
15,A3G A15G A65G U67C,0.22
16,A3G A15G A65G U72A,0.22
17,A3G A15G C29G C38A U60A A64U,0.12
18,A3G A15G C29U U54A,0.24
19,A3G A15G C32U A56G A64U U74C,0.12
20,A3G A15G C34U U72A,0.43
21,A3G A15G C38A U43A A56G,0.23
22,A3G A15G C38A U80C,0.6
23,A3G A15G C38U U41C U43A,0.61
24,A3G A15G C39U,0.71

row,Variant,self-cleavage
1,A3G A15G C40U,0.65
2,A3G A15G C62U U69A,0.23
3,A3G A15G G16C A35G C81A,0.66
4,A3G A15G G19C U76A,0.45
5,A3G A15G G22A U25C A57U U58C U74A,0.26
6,A3G A15G G22C U31C,0.4
7,A3G A15G G22U,0.41
8,A3G A15G G30A A65G,0.37
9,A3G A15G G30C C50A A57C,0.13
10,A3G A15G G30U U41C C50A A57C U72A,0.01
11,A3G A15G G36C U67G,0.13
12,A3G A15G U25A C34U U43C U49C U69C,0.17
13,A3G A15G U25A U48C U67C U72C,0.12
14,A3G A15G U25C A28G A35U U60C U74A,0.58
15,A3G A15G U26A A45U A65G,0.12
16,A3G A15G U26C,0.72
17,A3G A15G U26C U31C A35U A45U U60C,0.33
18,A3G A15G U26C U43C,0.24
19,A3G A15G U31C,0.41
20,A3G A15G U31C C40U A47G U51C A64U,0.09
21,A3G A15G U31C U48C,0.68
22,A3G A15G U41C U49A U58A,0.24
23,A3G A15G U49C U54A A56G A57G,0.37
24,A3G A15G U54A,1.02

row,Variant,self-cleavage
1,A3G A15G U58A U72C U76A,0.67
2,A3G A15G U58C,0.28
3,A3G A15G U58C U69C,0.24
4,A3G A15G U60A U72C,1.03
5,A3G A15G U66C U69C A77G,0.28
6,A3G A15G U69C,0.5
7,A3G A15G U72A,0.24
8,A3G A15U A18G A21G U74C U76A,0.19
9,A3G A15U A18U A28G C68A A75C,0.09
10,A3G A15U A18U U76A,0.48
11,A3G A15U A20G C23U A28G A47G U69C,0.29
12,A3G A15U A45G,0.26
13,A3G A15U A45U G46C U51A U67C U74C,0.09
14,A3G A15U A64G A65G U72C,0.14
15,A3G A15U A64U,0.17
16,A3G A15U A64U U67A,0.08
17,A3G A15U A75C,0.71
18,A3G A15U A77U U80A,0.87
19,A3G A15U C29U C68A U80C,0.09
20,A3G A15U C34U G46C U67C U72C,0.07
21,A3G A15U C38U A47G,0.68
22,A3G A15U C39A C40A U51C,0.1
23,A3G A15U C59A U78C,0.2
24,A3G A15U C62G,0.14

row,Variant,self-cleavage
1,A3G A15U G16A A20G G36U U41C U43C,0.03
2,A3G A15U U25A U49C U58C A64G G73A,0.31
3,A3G A15U U25A U58C G73A,0.5
4,A3G A15U U25C U78C,0.48
5,A3G A15U U26C U67C U72C U80C,0.11
6,A3G A15U U31C U72C,0.66
7,A3G A15U U41A U67G U76A,0.08
8,A3G A15U U67G U72G U74C,0.15
9,A3G A18C A35U A56G U58C,0.36
10,A3G A18C U31A A57G,0.08
11,A3G A18C U69C,0.25
12,A3G A18G A20G A35U C39U U49C,0.06
13,A3G A18G A20G A65G,0.17
14,A3G A18G A20G G24A U51C U54C A56G,0.05
15,A3G A18G A20U G30A A47G C62U,0.14
16,A3G A18G A20U U41A,0.09
17,A3G A18G A21G,0.32
18,A3G A18G A21G C32A,0.6
19,A3G A18G A28C,0.23
20,A3G A18G A28G U48C,0.64
21,A3G A18G A35U U69C,0.73
22,A3G A18G A45U U51C,0.46
23,A3G A18G C29A G33A A65G,0.22
24,A3G A18G C71A,0.56

row,Variant,self-cleavage
1,A3G A18G G24A,0.39
2,A3G A18G G33U,0.42
3,A3G A18G G36A,0.47
4,A3G A18G U25C A28G,0.43
5,A3G A18G U25C A77U U78C,0.08
6,A3G A18G U25C U31G A35G,0
7,A3G A18G U31A,0.61
8,A3G A18G U31A A35G,0.6
9,A3G A18G U41C U54C U80C,0.95
10,A3G A18G U43A A77U,0.93
11,A3G A18G U43C U48C U58C,0.28
12,A3G A18G U43C U80C,0.2
13,A3G A18G U67A U78C,0.28
14,A3G A18G U76C,0.89
15,A3G A18U A20G U49C U76C,0.18
16,A3G A18U A21G A35U G42U G63A,0.32
17,A3G A18U A21U,0.4
18,A3G A18U A28G G36A U80C,0.09
19,A3G A18U A28G G61A,0.24
20,A3G A18U A35G C39U U49C C68A,0.71
21,A3G A18U A47G U60C,0.24
22,A3G A18U A75G,0.42
23,A3G A18U A77C,0.41

# — the RNAGym collection of RNA variant scans (doi:10.1093/nar/gkz1192)
